According to the RNAGym collection of RNA variant scans (doi:10.1093/nar/gkz1192):
The source gives no read counts; variants with many changes may rest on few reads.

B1: CPEB3 Ribozyme (parent)
chain: UAACAGGGGGCCACAGCAGAAGCGUUCACGUCGCAGCCCCUGUCAGAUUCUGGUGAAUCUGCGAAUUCUGCUGUAUAUCUC

Variants of: B1
Assay: self-cleavage, relative activity (ratio to wild type); higher = more cleavage; in vitro, sequencing
Method in brief: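 Libraries of CPEB3 self-cleaving ribozyme mutants came from rounds of error-prone PCR and carried barcodes, which DNA sequencing matched to variants. In vitro transcription used T7 RNA polymerase at 37°C for 5 hours, with a further 15 min in DNase I before EDTA stopped the reaction; the ribozymes cleaved during both steps. The RNA was reverse transcribed with template switching and sequenced on Illumina. Relative activity is the cleaved/total read fraction of a variant divided by that of the unmutated ribozyme, averaged over three batches with at least 5 reads.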

Row | Variant | self-cleavage
1 | G6A A18G C29U U41G C50U A57G C79U | 0.02
2 | G6A A18G G42A | 0.28
3 | G6A A18G U25C A57G | 0.04
4 | G6A A18G U25C U31A U60A | 0.24
5 | G6A A18G U25G U66C G70C A75U | 0.04
6 | G6A A18G U43A | 0.47
7 | G6A A18G U43C | 0.05
8 | G6A A18G U43C U51C A56G A57G | 0.3
9 | G6A A18G U49A U72G | 0.08
10 | G6A A18G U54C | 0.23
11 | G6A A18U A21G C68A | 0.17
12 | G6A A18U A35C A47G A75U | 0.06
13 | G6A A18U A35U A75C | 0.26
14 | G6A A18U A45G U78C | 0.24
15 | G6A A18U A47C U72C | 0.23
16 | G6A A18U A64G A65G | 0.03
17 | G6A A18U C29A A35G A65G | 0.06
18 | G6A A18U C32U U43A U58A U67C U74A | 0.04
19 | G6A A18U U25A U58A U74C | 0.1
20 | G6A A18U U25C A28U U54C U66C U72A | 0.06
21 | G6A A18U U31A U49C U51A U80A | 0.05
22 | G6A A18U U48G U49A U60C U67C | 0.05
23 | G6A A18U U60A U78C | 0.26
24 | G6A A18U U80A | 0.38

Row | Variant | self-cleavage
25 | G6A A20G A28U A35U C44U C71U U76C | 0.04
26 | G6A A20G A35U A77G U78C | 0.03
27 | G6A A20G A57G A65U | 0.12
28 | G6A A20G G24A A56G A65U U66C C79A | 0.03
29 | G6A A20G G24A U78C | 0.05
30 | G6A A20G G36A U76C | 0.22
31 | G6A A20G U25C U26C U66C | 0.05
32 | G6A A20G U26C U41A U49A U66C U78C | 0.05
33 | G6A A20G U26C U49G A64G A65C U80A | 0.01
34 | G6A A20G U41G A47U | 0.07
35 | G6A A20G U58A | 0.14
36 | G6A A20U A57G U67C | 0.13
37 | G6A A20U A57G U76A | 0.14
38 | G6A A20U U43C U58C U67G U74C U76A | 0.02
39 | G6A A21G A28G U43C A65G U66C | 0.33
40 | G6A A21G A35C C39U | 0.05
41 | G6A A21G A35G A57G | 0.53
42 | G6A A21G A35G U66A | 0.38
43 | G6A A21G A56U A57G | 0.05
44 | G6A A21G A56U U60A U67C A77G | 0.05
45 | G6A A21G C23U C27A A45U A57U A64G | 0.04
46 | G6A A21G C39A A45C U60C A77G | 0.07
47 | G6A A21G G30A U31A U66G A75G | 0.1
48 | G6A A21G G52C A56G | 0.27

Row | Variant | self-cleavage
49 | G6A A21G G63U | 0.28
50 | G6A A21G U26A G33U A45G A47G U60A | 0.04
51 | G6A A21G U26C A35U U41C U49C U69C | 0.03
52 | G6A A21G U41A U69C A75U | 0.07
53 | G6A A21G U41C G46A U60C U72C | 0.07
54 | G6A A21G U60C | 0.16
55 | G6A A21G U60C U72C U74C | 0.23
56 | G6A A21U C37A C38U A56U U69A | 0.02
57 | G6A A21U U69A | 0.06
58 | G6A A28C A56U | 0.06
59 | G6A A28C U41C U48A U60C | 0.24
60 | G6A A28G A35C U69C C71U | 0.18
61 | G6A A28G A45G U51C U60A | 0.05
62 | G6A A28G A47G U54A | 0.07
63 | G6A A28G A47G U58C U72A | 0.13
64 | G6A A28G C38A U43C A45U A65G U66C | 0.12
65 | G6A A28G U31A A35U A47U U72A | 0.11
66 | G6A A28G U41C A56G | 0.16
67 | G6A A28G U41C A65G G70A | 0.04
68 | G6A A28U A64C | 0.22
69 | G6A A28U C29U U31C U54A C71U | 0.19
70 | G6A A28U C32A U76C | 0.06
71 | G6A A28U U31A C37A A45G | 0.07
72 | G6A A28U U51G U58A C68A | 0.05

Row | Variant | self-cleavage
73 | G6A A28U U66C | 0.3
74 | G6A A35G A45U A47G | 0.11
75 | G6A A35G A57G U66C | 0.25
76 | G6A A35G A65C U72A | 0.25
77 | G6A A35G G42C U69A | 0.08
78 | G6A A35U A45G U54A | 0.08
79 | G6A A35U A45G U78C | 0.06
80 | G6A A35U C38G U72C | 0.14
81 | G6A A35U U41A U78C U80C | 0.08
82 | G6A A35U U41G U66C | 0.05
83 | G6A A35U U43C U66C U72C U78C | 0.13
84 | G6A A35U U54C A75G U80C | 0.09
85 | G6A A45C A56U | 0.17
86 | G6A A45G A56G | 0.07
87 | G6A A45G A64U U67C U76A | 0.22
88 | G6A A45G C81U | 0.17
89 | G6A A45G U49C A64U | 0.03
90 | G6A A45G U49C A65G U69C U72C U80C | 0.04
91 | G6A A45G U51C | 0.09
92 | G6A A45G U54A | 0.48
93 | G6A A45G U78C | 0.33
94 | G6A A45U A56G | 0.18
95 | G6A A45U U48C U49C U69G U76A | 0.04
96 | G6A A45U U54C A64U | 0.13

Row | Variant | self-cleavage
97 | G6A A45U U66C U72C | 0.25
98 | G6A A47G A56G A77G U80A | 0.38
99 | G6A A47G G52A A56U U80C | 0.07
100 | G6A A47G U48C C50A U60C | 0.2
101 | G6A A47G U60A | 0.15
102 | G6A A47U U49C U80C | 0.1
103 | G6A A56G U80C | 0.09
104 | G6A A56U U67C U80C | 0.15
105 | G6A A57G U60A | 0.12
106 | G6A A57G U72C | 0.33
107 | G6A A64G C71U A77G | 0.06
108 | G6A A64G U66A | 0.41
109 | G6A A64G U78C | 0.32
110 | G6A A64G U80G | 0.11
111 | G6A C11A A15C C38A U67C | 0.37
112 | G6A C11A A21U A35G | 0.27
113 | G6A C12A U48C U76C | 0.19
114 | G6A C12G A13G | 0.44
115 | G6A C12G A15G C29U A35G U72C | 0.05
116 | G6A C12U A47G U66A | 0.08
117 | G6A C12U A56G | 0.12
118 | G6A C12U C62U | 0.06
119 | G6A C12U G19U U25C U78C | 0.05
120 | G6A C12U G30A G61A A64U U69C A75U | 0.04

Row | Variant | self-cleavage
121 | G6A C12U G42A C50A U69A A77C U80C | 0.04
122 | G6A C12U U26G U66C U72A | 0.05
123 | G6A C14A U43C C44U U49A | 0.05
124 | G6A C14U A20U | 0.04
125 | G6A C14U A56U | 0.09
126 | G6A C14U C23G U25A C59G U80C | 0.05
127 | G6A C17U A35G U43C A57G | 0.06
128 | G6A C23A C29A U51G U80A | 0.06
129 | G6A C23G A35G G52C U67G | 0.05
130 | G6A C23G G52C A57G G70C U78C | 0.08
131 | G6A C23G U25C U41C G52A | 0.06
132 | G6A C23G U26A | 0.05
133 | G6A C23G U72C | 0.66
134 | G6A C23U A35G A57G | 0.12
135 | G6A C23U A45U U60G | 0.2
136 | G6A C23U U25C A45U C62A U67C | 0.05
137 | G6A C23U U60A | 0.21
138 | G6A C23U U72C | 0.08
139 | G6A C27U U48C U74A | 0.3
140 | G6A C29A U31G U49C | 0.06
141 | G6A C29G U31A A35U A45G U54A U72C | 0.05
142 | G6A C29U A65G U78C | 0.11
143 | G6A C32A U48C U74C | 0.07
144 | G6A C32G A35G U41A U54C C62U A64U | 0.05

Row | Variant | self-cleavage
145 | G6A C32G U69C U80C | 0.07
146 | G6A C34A U49G U51A U60C U66C U76C | 0.03
147 | G6A C34G A77C | 0.16
148 | G6A C34G U66C C71U | 0.13
149 | G6A C34U A56G A75U A77U | 0.19
150 | G6A C37A U67C | 0.13
151 | G6A C37U U51A U54C U72C | 0.11
152 | G6A C37U U76A | 0.35
153 | G6A C38A A56G U69A | 0.07
154 | G6A C38A A57G U69C | 0.05
155 | G6A C38U A56G U67A G73A | 0.04
156 | G6A C38U A56U | 0.1
157 | G6A C38U A56U U67C | 0.09
158 | G6A C38U U43A A56G A77C | 0.16
159 | G6A C39U A45U A64G | 0
160 | G6A C40A A57G A64G | 0.24
161 | G6A C40U A45C | 0.21
162 | G6A C40U A47U U72G | 0.08
163 | G6A C44U U60C | 0.07
164 | G6A C50A U80C | 0.34
165 | G6A C50U U66C | 0.25
166 | G6A C62U U72C | 0.17
167 | G6A G7C A18G G30A C40U U72A | 0
